The text below walks through data of ChEMBL document CHEMBL5606458, “ASAP - ZIKV NS2B-NS3 protease fluorescence single point” (2024).

The experiment deals with Nonstructural protein 3 (Zika virus) (UniProt A0A024AXB9).
Setting [1] is: PRVABC59, Concentration 15.0 uM, Number of replicates 1.0.
The mark [2] stands for this setting: PRVABC59, Concentration 50.0 uM, Number of replicates 1.0.

The structures appear in SMILES notation. Out of some 2,700 compounds screened, about 160 (5.9%) showed an effect of 50% or more. Some of the results follow.

Chain of UniProt A0A024AXB9 (A0A024AXB9 as listed by the source): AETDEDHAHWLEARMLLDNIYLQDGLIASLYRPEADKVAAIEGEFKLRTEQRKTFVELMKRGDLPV

Consider `O=Cc1ccc(N2CCC(C(=O)NCc3cccc(F)c3Cl)CC2)cc1`, for which the inhibition (PRVABC59, Concentration 10.0 uM, Number of replicates 1.0) was found to be 25.4%.

On to `O=C(Nc1ccc(OC(F)(F)F)cc1Cl)c1cc(Cl)ccc1NS(=O)(=O)c1ccc(Oc2ccccc2Cl)cc1`, for which the inhibition under setting [1] is 23%.

Regarding `O=C(Nc1ccc(I)c(F)c1)c1cc(Cl)ccc1NS(=O)(=O)c1ccc(Oc2ccccc2Cl)cc1`, the inhibition under setting [1] was 37.6%.

For the compound `O=Cc1ccc(N2CCC(C(=O)N3CCC(NC(=O)c4ccccc4)CC3)CC2)cc1`, under setting [2], the inhibition is 26.6%.

Take `O=C(NCc1ccccc1Br)c1cc(Cl)ccc1NS(=O)(=O)c1ccc(Oc2ccccc2Cl)cc1`: under setting [1], the inhibition was determined as 38.5%.

Consider `O=Cc1ccc(N2CCC(C(=O)N3CCC(n4c(=O)[nH]c5ccccc54)CC3)CC2)cc1`, for which, under setting [2], the inhibition stood at 29.4%.

As for `O=C(Nc1ccc(Br)c(Cl)c1Cl)c1cc(Cl)ccc1NS(=O)(=O)c1ccc(Oc2ccccc2Cl)cc1`, the inhibition under setting [1] stood at 21.6%.

Take `COc1c(C)cnc(CN(C)C(=O)c2cc(Cl)ccc2NS(=O)(=O)c2ccc(Oc3ccccc3Cl)cc2)c1C`: the inhibition under setting [1] came out at 14.8%.

Turning to `CCS(=O)(=O)N1CCN(C(=O)C2CCN(c3ccc(C=O)cc3)CC2)CC1`, the inhibition under setting [2] came out at 21.9%.

With `Cc1cc(CO)c2cccc(Cc3cccc(NC(=O)[C@@H]4CC(=O)CCN4)c3)c2n1`, the inhibition is 6.74% (PRVABC59, Concentration 49.95 uM, Number of replicates 2.0, Standard deviation 1.827188951744908 %) and 21.6% (PRVABC59, Concentration 99.9 uM, Number of replicates 2.0, Standard deviation 1.0739192331465606 %).

As to `Cc1cnccc1NC(=O)c1cccc2c1NC(=O)CO2`, the inhibition reads like this: (PRVABC59, Concentration 49.5 uM, Number of replicates 2.0, Standard deviation 0.9011512089054917 %) -7.2%; (PRVABC59, Concentration 99.01 uM, Number of replicates 2.0, Standard deviation 0.10792223182135952 %) -9.6%.

In the case of `CCn1c2ccccc2c2cc(NC(=O)c3cc(Cl)ccc3NS(=O)(=O)c3ccc(Oc4ccccc4Cl)cc3)ccc21`, under setting [1], the inhibition stood at 13.9%.

In the case of `Cc1cc(N)cc(CNc2cccc3c(CO)cc(C)nc23)c1`, the inhibition runs as follows: (PRVABC59, Concentration 49.95 uM, Number of replicates 2.0, Standard deviation 0.17563299841544527 %) 36.2%; (PRVABC59, Concentration 99.9 uM, Number of replicates 2.0, Standard deviation 0.025091199030293523 %) 52.6%.

Take `Cc1cc(CO)c2cccc(Cc3cccc(C(=O)N[C@@H](CCN)C(=O)O)c3)c2n1`: the inhibition reads like this: (PRVABC59, Concentration 49.95 uM, Number of replicates 2.0, Standard deviation 2.396260968695063 %) -2.56%; (PRVABC59, Concentration 99.9 uM, Number of replicates 2.0, Standard deviation 4.032220691467312 %) 5.61%.

For `O=C(c1cc(Cl)ccc1NS(=O)(=O)c1ccc(Oc2ccccc2Cl)cc1)N1CCC(c2nc3ccccc3[nH]2)CC1`, under setting [1], the inhibition was 20.5%.

`O=Cc1ccc(N2CCC(C(=O)Nc3ccc(I)c(F)c3)CC2)cc1`: the inhibition under setting [2] stood at 22.3%.

With `O=C(Nc1cccc(-c2ccccc2)c1)c1cc(Cl)ccc1NS(=O)(=O)c1ccc(Oc2ccccc2Cl)cc1`, the inhibition under setting [1] stood at 32.5%.

Turning to `CCc1nc(CCNC(=O)C2CCN(c3ccc(C=O)cc3)CC2)cs1`, under setting [2], the inhibition was 19.1%.

Regarding `Cc1cnccc1NC(=O)c1csc(N2CCCCC2)n1`, the inhibition (PRVABC59, Concentration 49.5 uM, Number of replicates 2.0, Standard deviation 6.1003469917591735 %) is -5.96%; the inhibition (PRVABC59, Concentration 99.01 uM, Number of replicates 2.0, Standard deviation 7.07068107238354 %) is -6.37%; the inhibition (PRVABC59, Concentration 198.0 uM, Number of replicates 2.0, Standard deviation 1.0147915879580212 %) is -4.88%.

For `Cc1ccc([C@H](CNC(=O)C2CCN(c3ccc(C=O)cc3)CC2)N(C)C)cc1`, the inhibition under setting [2] was 19.9%.

Regarding `Cc1cc(CO)c2cccc(NC(=O)c3ccc(-c4ccccn4)s3)c2n1`, the inhibition runs as follows: (PRVABC59, Concentration 49.95 uM, Number of replicates 2.0, Standard deviation 1.3900261182154205 %) 0.82%; (PRVABC59, Concentration 99.9 uM, Number of replicates 2.0, Standard deviation 1.1842819360840948 %) 7.83%.

In the case of `CN(Cc1cccc2cccnc12)C(=O)c1cc(Cl)ccc1NS(=O)(=O)c1ccc(Oc2ccccc2Cl)cc1`, under setting [1], the inhibition came to 26.2%.

Turning to `O=C(c1ccn([C@H]2CCCNC2)n1)N1CCO[C@@H](c2n[nH]c(CO)n2)C1`, the inhibition by setting is: (PRVABC59, Concentration 49.5 uM, Number of replicates 2.0, Standard deviation 3.0216142562611923 %) -2.13%; (PRVABC59, Concentration 99.01 uM, Number of replicates 2.0, Standard deviation 3.462904886608658 %) -2.3%; (PRVABC59, Concentration 198.0 uM, Number of replicates 2.0, Standard deviation 3.223872617761246 %) -2.16%.

Take `COc1cc(COc2cc(C)c(C)nn2)nc(N2CCNCC2)n1`: the inhibition (PRVABC59, Concentration 49.5 uM, Number of replicates 2.0, Standard deviation 3.3161813072073656 %) is -1.34%; the inhibition (PRVABC59, Concentration 99.01 uM, Number of replicates 2.0, Standard deviation 3.3762495857609713 %) was found to be 1.73%; the inhibition (PRVABC59, Concentration 198.0 uM, Number of replicates 2.0, Standard deviation 2.9412727828231984 %) turned out to be 5.59%.

In the case of `O=C(NCCNC(=O)c1cc(Cl)ccc1NS(=O)(=O)c1ccc(Oc2ccccc2Cl)cc1)c1ccccc1Cl`, the inhibition under setting [1] was found to be 25%.

Turning to `CCN(Cc1cccc(Cl)c1)C(=O)c1cc(Cl)ccc1NS(=O)(=O)c1ccc(Oc2ccccc2Cl)cc1`, the inhibition under setting [1] came to 29.5%.

For the compound `CNC(=O)c1cc(Cl)ccc1NC(=O)[C@H]1CCN(c2ccc(Cl)c(Cl)c2)C1=O`, the inhibition (PRVABC59, Concentration 49.5 uM, Number of replicates 2.0, Standard deviation 2.496560479347894 %) was found to be 2.4%; the inhibition (PRVABC59, Concentration 99.01 uM, Number of replicates 2.0, Standard deviation 3.1993564176484743 %) stood at 2.43%; the inhibition (PRVABC59, Concentration 198.0 uM, Number of replicates 2.0, Standard deviation 3.3178510389048217 %) came out at 1.41%.
